{"source": "PubChem BioAssay (NCATS)", "note": "Several values for one entry are separate records, joined by “and”; a condition that tells them apart may be missing. Equal entries are not always repeated. Inconclusive means that the source gave no clear call. Such entries were picked first, then a sample of the others. Potencies of inconclusive entries are doubtful fits and often do not repeat. Activity calls are given as the source filed them. The call rests on the fitted dose curve; in most records, active means well fitted inhibition curve with a large enough effect; inconclusive means small, poorly fitted or top-dose-only effect; inactive means flat fitted curve, though single readings scatter. On the % scale 0 is the no-effect control and ±100 the full control effect; potency means the concentration at half of the fitted maximal effect; tags describe the fitted curve by direction and shape."}
{"assay": "Primary qHTS for inhibitors of nuclear receptor binding SET domain protein 2 (NSD2) in an isogenic RCH-ACV NSD2 p.E1099K mutant (9B) (AID 1645876); further: nearly all actives have a fitted effect of over 70% in size", "conditions": "RCH-ACV NSD2 E1099K (9B) viability, CellTiter-Glo, 72 h; series mostly up to 44.9 µM; activity change, negative = viability loss: at the top concentration"}
{"smiles": "CN(C)CCN1C(=O)c2cccc3cc(N)cc(c23)C1=O", "Potency": "active: 5.25 µM"}
{"smiles": "N#Cc1c(NC(=O)c2cccc3ccccc23)sc2c1CCCC2", "Potency": "active: 0.263 µM"}
{"smiles": "C[C@]12CC[C@@H]3c4ccc(O)cc4CC[C@H]3[C@H]1[C@@H](O)[C@@H](O)[C@H]2O", "Potency": "inconclusive: 33.2 µM [inhibitor, single point]"}
{"smiles": "C[C@@H](NCc1cc2ccccc2[nH]1)c1cccc2ccccc12", "Potency": "active: 16.6 µM"}
{"smiles": "OC[C@H]1OC(O)C[C@@H](O)[C@H]1O", "note": "(some centres not stated)", "activity change, negative = viability loss": "inactive: 9.56%"}
{"smiles": "CC(C)[C@H](O)C(=O)N[C@@H](C)C(=O)N[C@@H]1C(=O)N(C)CCc2ccccc21", "outcome": "inactive"}
{"smiles": "C[C@@H](NC(=O)c1ncnc(N)c1Cl)c1ncc(C(=O)Nc2cc(C(F)(F)F)c(Cl)cn2)s1", "Potency": "inconclusive: 23 µM [inhibitor, partial curve]"}
{"smiles": "O=C(O)c1ccc(O)c2ncc(N3CCOCC3)cc12", "Potency": "inconclusive: 29.5 µM [inhibitor, single point]"}
{"smiles": "CCN(CCO)CCCOc1ccc2c(Nc3cc(CC(=O)Nc4cccc(F)c4)[nH]n3)ncnc2c1", "Potency": "active: 5.9 µM"}
{"smiles": "CC(=O)NC[C@H]1CN(c2ccc(N3CCOCC3)c(F)c2)C(=O)O1", "activity change, negative = viability loss": "inactive: -9.84%"}
{"smiles": "CC(C)c1ccccc1Cc1cc(C(=O)Nc2ccc(S(=O)(=O)c3ccccc3C(C)(C)C)cc2)c(O)c(O)c1O", "Potency": "active: 13.2 µM"}
{"smiles": "CN1CCN2c3ccccc3Cc3ccccc3C2C1", "note": "(configuration not stated)", "Potency": "inconclusive: 29.9 µM [inhibitor, single point]"}
{"smiles": "O=c1[nH]cnc2[nH]ncc12", "Potency": "inactive"}
{"smiles": "Cc1ccc(-c2ncn(-c3ccc(Nc4nccc(-c5cccc(N6CCOCC6)c5)n4)cc3)n2)cn1", "Potency": "active: 1.05 µM"}
{"smiles": "CCC(C)(C)c1ccc(CC(C)CN2C[C@@H](C)O[C@@H](C)C2)cc1", "note": "(some centres not stated)", "activity change, negative = viability loss": "inactive: -24.2%"}
{"smiles": "Nc1ncnc2c1c(-c1cccc(OCc3ccccc3)c1)cn2C1CC(CN2CCC2)C1", "note": "(configuration not stated)", "Potency": "inconclusive: 3.72 µM [inhibitor, full curve, poor fit]"}
{"smiles": "COC(=O)N[C@H](C(=O)N[C@@H](Cc1ccccc1)[C@@H](O)CN(Cc1ccc(-c2ccccn2)cc1)NC(=O)[C@@H](NC(=O)OC)C(C)(C)C)C(C)(C)C", "Potency": "inconclusive: 16.8 µM [inhibitor, partial curve, poor fit]"}
{"smiles": "CCN(CC)CCOc1ccc(Cc2ccccc2)cc1", "Potency": "inconclusive: 33.5 µM [inhibitor, single point] and inconclusive: 33.2 µM [inhibitor, single point]"}
{"smiles": "CCC(=O)O[C@]1(C(=O)SCF)[C@H](C)C[C@H]2[C@@H]3C[C@H](F)C4=CC(=O)C=C[C@]4(C)[C@@]3(F)[C@@H](O)C[C@@]21C", "Potency": "inconclusive: 0.7 nM [inhibitor] and inconclusive: 5.3 nM [inhibitor, full curve, poor fit]"}
{"smiles": "COc1ccc2c(c1)c(CC(=O)OCC(=O)O)c(C)n2C(=O)c1ccc(Cl)cc1", "Potency": "inconclusive: 16.8 µM [inhibitor, partial curve, poor fit]"}
{"smiles": "CCC(=O)O[C@]1(C(=O)CCl)[C@@H](C)C[C@H]2[C@@H]3CCC4=CC(=O)C=C[C@]4(C)[C@@]3(F)[C@@H](O)C[C@@]21C", "Potency": "inconclusive: 33.5 µM [inhibitor, single point]"}
{"smiles": "Cc1c(C(=O)Nc2ccc(N3C[C@@H](C)O[C@@H](C)C3)nc2)cccc1-c1ccc(OC(F)(F)F)cc1", "Potency": "inconclusive: 16.3 µM [inhibitor, partial curve, poor fit]"}
{"smiles": "Nc1cccc(S(=O)(=O)N2CCCN(S(=O)(=O)c3ccc4c(c3)OCCO4)CC2)c1", "Potency": "inconclusive: 20.9 µM [inhibitor, partial curve]"}
{"smiles": "Cc1ccccc1C(=O)c1ccc(Nc2ccc(Br)cc2N)cc1Cl", "Potency": "active: 16.6 µM and active: 5.78 µM"}
{"smiles": "CN[C@@H]1CN(c2ccc3c(=O)c(C(=O)O)cn(-c4nccs4)c3n2)C[C@@H]1OC", "Potency": "active: 0.102 µM"}
{"smiles": "COc1cc2c(cc1OC)C1CC(=O)C(CC(C)C)CN1CC2", "note": "(configuration not stated)", "outcome": "inactive"}
{"smiles": "CCCCCCCCCCCCCCCC(=O)O[C@H]1[C@@H](O)[C@@H](O)[C@@H]([C@H](NC(=O)[C@@H]2C[C@@H](CCC)CN2C)[C@H](C)Cl)O[C@@H]1SC", "Potency": "inconclusive: 37.2 µM [inhibitor, partial curve, poor fit]"}
{"smiles": "Clc1ccc2c(N3CCN(CCCN4CCN(c5ccnc6cc(Cl)ccc56)CC4)CC3)ccnc2c1", "activity change, negative = viability loss": "inactive: -3.03%"}
{"smiles": "C=CC(=O)N1CCc2ccc(-n3c(=O)ccc4cnc5ccc(-c6cnn(C)c6)cc5c43)cc21", "Potency": "active: 0.363 µM"}
{"smiles": "CC(Cc1ccc(O)c(O)c1)(NN)C(=O)O", "note": "(configuration not stated)", "Potency": "inconclusive: 37.2 µM [inhibitor, single point]"}
{"smiles": "Cn1cc(-c2ccc3ncc(Cc4ccc5ncccc5c4)n3n2)cn1", "Potency": "inconclusive: 18.6 µM [inhibitor, partial curve]"}
{"smiles": "CCN(C)C(=O)Oc1cccc([C@H](C)N(C)C)c1", "outcome": "inactive"}
{"smiles": "Cc1csc(-c2nnc(Nc3ccc(Oc4ncccc4-c4ccnc(N)n4)cc3)c3ccccc23)c1", "Potency": "inconclusive: 2.3 µM [inhibitor, full curve, poor fit] and inconclusive: 66.1 nM [inhibitor, full curve]"}
{"smiles": "Nc1ccc(S(N)(=O)=O)cc1", "Potency": "inconclusive: 21.1 µM [inhibitor, partial curve, poor fit] and inactive"}
{"smiles": "CCc1cccc2c3c([nH]c12)C(CC)(CC(=O)O)OCC3", "note": "(configuration not stated)", "activity change, negative = viability loss": "inactive: -3.19%"}
{"smiles": "COc1ccc(C2(C#N)CCC(C(=O)O)CC2)cc1OC1CCCC1", "note": "(configuration not stated)", "Potency": "inactive and inconclusive: 11.8 µM [inhibitor, single point]"}
{"smiles": "S=P(N1CC1)(N1CC1)N1CC1", "Potency": "inconclusive: 72.1 µM [inhibitor, single point]"}
